{
  "source": "ChEMBL document CHEMBL4888484",
  "about": "“Replenishing the malaria drug discovery pipeline: Screening and hit evaluation of the MMV Hit Generation Library 1 (HGL1) against asexual blood stage Plasmodium falciparum ,using a nano luciferase reporter read-out” (2022)",
  "note": "In all, about 150,000 compounds went through this assay and about 540 (0.36%) showed an effect of 50% or more. The list shows a part of the results.",
  "data": [
    {"system": "Plasmodium falciparum", "assay": "Primary screen in NF54 nanoGlo assay, in single point, at 2uM, 72h; a lower Z score goes with more inhibition", "assay_type": "functional, Erythrocyte", "settings": "timepoint 72 hour", "units": {"% Inhibition": "%"}, "values": [
      {"smiles": "Cc1ccc2nc3n(c2c1)[C@@H](CNC(=O)c1ccccn1)COC3", "% Inhibition": 11, "Z score": -1.46},
      {"smiles": "COc1ccc(NC(=O)N2CC[C@]3(CCN(C)C3)C2)cc1OC", "% Inhibition": 4, "Z score": -0.47},
      {"smiles": "COc1ccc(CN2CCN(c3cccc4c3C(=O)N(C[C@H]3CCCO3)C4=O)CC2)cc1C", "% Inhibition": -9, "Z score": 1.23},
      {"smiles": "Cc1ccc(S(=O)(=O)N2CCN([C@H]3CCN(c4ccccc4)C3)CC2)cc1", "% Inhibition": -8, "Z score": 0.82},
      {"smiles": "CCCN(CC(=O)N1CCc2sccc2C1COc1cccc(OC)c1)CC(O)CC", "note": "(stereo unspecified)", "% Inhibition": 6, "Z score": -0.55},
      {"smiles": "Cc1csc(C(=O)NC2CCC2O)c1", "note": "(stereo unspecified)", "% Inhibition": -16, "Z score": 2.07},
      {"smiles": "O=C(Nc1cc(C2CC2)n[nH]1)C1CC1c1ccccc1", "note": "(stereo unspecified)", "% Inhibition": -6, "Z score": 0.9},
      {"smiles": "c1ccc2c(c1)N(Cc1ccno1)CCCN2Cc1ccno1", "% Inhibition": -6, "Z score": 1.01},
      {"smiles": "CC(=O)NCCC(=O)Nc1ccc(OC[C@H]2CCCCO2)cc1", "% Inhibition": -6, "Z score": 1.02},
      {"smiles": "COc1cccn2ncc(C(=O)N[C@@]3(CCO)CCOC3)c12", "% Inhibition": -13, "Z score": 2.67},
      {"smiles": "CCN1CCC[C@@H]1CNC(=O)c1ccc(-c2ccc(OC)cc2OC)cc1", "% Inhibition": -14, "Z score": 2.72},
      {"smiles": "O=C(C[C@@H]1COC2(C1)CN(C(=O)CCCc1ccccc1)C2)NCc1ccncc1", "% Inhibition": 0, "Z score": -0.04},
      {"smiles": "Cc1cc(CN2C(=O)c3ccccc3C2=O)cc(N2CCC(C)CC2)c1", "% Inhibition": -15, "Z score": 1.95},
      {"smiles": "CC(=O)c1ccc(NC(=O)[C@H](C)Nc2ccc3c(c2)CCC3)cc1", "% Inhibition": -8, "Z score": 0.75},
      {"smiles": "CCOc1ccccc1NC(=O)c1c(NCc2ccc(N(C)C)cc2)sc2c1CCC2", "% Inhibition": -10, "Z score": 1.62},
      {"smiles": "COc1cc2c(cc1OC)[C@@H](NC(=O)c1c(C)noc1C)CC2", "% Inhibition": 7, "Z score": -1.07},
      {"smiles": "COc1ccc(-n2cc(-c3cccc(OC)c3)nc2NC(=O)CN(C(=O)c2ccc3c(c2)OCO3)C(C)C)cc1", "% Inhibition": -5, "Z score": 0.53},
      {"smiles": "CC(=O)N(C)c1cccc(NC(=O)N2CCC(N3CCCC3)CC2)c1", "% Inhibition": -11, "Z score": 1.8},
      {"smiles": "CCNC(=O)N1CC[C@H](Oc2cc(N3CCCC3)ncn2)C1", "% Inhibition": -18, "Z score": 2.29},
      {"smiles": "CCN(Cc1ccccn1)Cc1[nH]nc(C)c1Cl", "% Inhibition": 3, "Z score": -0.5},
      {"smiles": "O=C(NC1CCS(=O)(=O)C1)N1CCCC1c1ccncc1", "note": "(stereo unspecified)", "% Inhibition": -6, "Z score": 1.27},
      {"smiles": "C=CCN(C(=O)c1ccc(Cl)c(C)c1)C(C)C", "% Inhibition": 8, "Z score": -0.73},
      {"smiles": "Cc1ccc(N2CCN(C(=O)c3nnn4cc(C)[nH]c(=O)c34)CC2)cc1", "% Inhibition": -14, "Z score": 1.56},
      {"smiles": "COc1ccc(O)c(-c2ccc3c(c2)OC[C@@H](N2CCCC2)[C@@H]3O)c1", "% Inhibition": -13, "Z score": 1.24},
      {"smiles": "Cc1cc(C(=O)N2Cc3[nH]c4ccccc4c3C[C@H]2C(=O)O)c(C)o1", "% Inhibition": -15, "Z score": 1.41},
      {"smiles": "COc1ccc(Cl)cc1N1C(=O)[C@@H]2C[C@H]1CN2C(=O)Cc1ccc(F)cc1", "% Inhibition": -9, "Z score": 1.49},
      {"smiles": "Cc1csc(-c2cc(S(=O)(=O)NC3CCC(C)CC3)c(C)n2C)n1", "note": "(stereo unspecified)", "% Inhibition": -6, "Z score": 0.92},
      {"smiles": "CCCN1CCCCC1C(=O)NCC(C)(O)c1ccsc1", "note": "(stereo unspecified)", "% Inhibition": -15, "Z score": 2.79},
      {"smiles": "COc1ccccc1CN1CCC(CN(Cc2cnc(N(C)C)s2)CC(C)C)CC1", "% Inhibition": -7, "Z score": 1.01},
      {"smiles": "FC(F)c1ccc(-c2noc(-c3ccnc(C4CC4)c3)n2)cn1", "% Inhibition": -10, "Z score": 0.98},
      {"smiles": "Cc1ccccc1N(C(=O)CCCn1ccnc1C)C(C)C", "% Inhibition": -9, "Z score": 1.35},
      {"smiles": "COCCN(CCOC)C(=O)c1ccc(Cl)o1", "% Inhibition": 0, "Z score": 0.01},
      {"smiles": "COc1ccc(CCC2=NCCn3cccc32)cc1", "% Inhibition": -14, "Z score": 2.2},
      {"smiles": "COc1cc(NC(=O)N2CCC[C@H](C)CC2)ncn1", "% Inhibition": -7, "Z score": 0.88},
      {"smiles": "O=C(NCc1cccnc1)C1=Cc2cc(-c3ccccc3)ccc2OC1", "% Inhibition": -11, "Z score": 1.13},
      {"smiles": "C[C@@H](CS(=O)(=O)c1ccc2ccccc2c1)N1CCC2(CC1)OCCO2", "% Inhibition": 33, "Z score": -3.75},
      {"smiles": "CC(C)C[C@]1(CO)CCCN1C(=O)Nc1ccc(OC(F)F)nc1", "% Inhibition": -1, "Z score": 0.21},
      {"smiles": "O=C(CCc1ccccc1)Nc1ccc(C(=O)N2CCCCC2)cc1", "% Inhibition": 3, "Z score": -0.46},
      {"smiles": "CCOCC(=O)Nc1ccc(C)c(O)c1", "% Inhibition": -32, "Z score": 3.76},
      {"smiles": "CC(C)(C)Cc1csc(NC(=O)c2coc(C3CCOCC3)n2)n1", "% Inhibition": -6, "Z score": 1.06},
      {"smiles": "Cc1cc(C)n(CCC(=O)N2CC[C@H](Nc3cccnc3)C2)n1", "% Inhibition": 12, "Z score": -1.57},
      {"smiles": "O=C(Cc1ccccc1F)N1CC[C@H]2[C@H](CCC(=O)N2CCc2ccccn2)C1", "% Inhibition": -4, "Z score": 0.74},
      {"smiles": "COc1cc(C(=O)NCC[C@H]2CN(C)CCO2)nc(OC)n1", "% Inhibition": -23, "Z score": 2.5}
    ]}
  ]
}
